The campaign covered roughly 310,000 compounds. About 14,000 (4.5%) showed an effect of 50% or more. Effects have a minus sign here. The list shows a part of the results.
These molecules were tested against human ether-à-go-go-related gene (hERG) potassium channel (human, UniProt Q12809) (assay: primary screen, population patch clamp on CHO cells stably expressing hERG).
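Also: peak tail current of the secondary pulse compared with the same well before compound.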

human ether-à-go-go-related gene (hERG) potassium channel, sequence (Q12809 whole entry, looked up): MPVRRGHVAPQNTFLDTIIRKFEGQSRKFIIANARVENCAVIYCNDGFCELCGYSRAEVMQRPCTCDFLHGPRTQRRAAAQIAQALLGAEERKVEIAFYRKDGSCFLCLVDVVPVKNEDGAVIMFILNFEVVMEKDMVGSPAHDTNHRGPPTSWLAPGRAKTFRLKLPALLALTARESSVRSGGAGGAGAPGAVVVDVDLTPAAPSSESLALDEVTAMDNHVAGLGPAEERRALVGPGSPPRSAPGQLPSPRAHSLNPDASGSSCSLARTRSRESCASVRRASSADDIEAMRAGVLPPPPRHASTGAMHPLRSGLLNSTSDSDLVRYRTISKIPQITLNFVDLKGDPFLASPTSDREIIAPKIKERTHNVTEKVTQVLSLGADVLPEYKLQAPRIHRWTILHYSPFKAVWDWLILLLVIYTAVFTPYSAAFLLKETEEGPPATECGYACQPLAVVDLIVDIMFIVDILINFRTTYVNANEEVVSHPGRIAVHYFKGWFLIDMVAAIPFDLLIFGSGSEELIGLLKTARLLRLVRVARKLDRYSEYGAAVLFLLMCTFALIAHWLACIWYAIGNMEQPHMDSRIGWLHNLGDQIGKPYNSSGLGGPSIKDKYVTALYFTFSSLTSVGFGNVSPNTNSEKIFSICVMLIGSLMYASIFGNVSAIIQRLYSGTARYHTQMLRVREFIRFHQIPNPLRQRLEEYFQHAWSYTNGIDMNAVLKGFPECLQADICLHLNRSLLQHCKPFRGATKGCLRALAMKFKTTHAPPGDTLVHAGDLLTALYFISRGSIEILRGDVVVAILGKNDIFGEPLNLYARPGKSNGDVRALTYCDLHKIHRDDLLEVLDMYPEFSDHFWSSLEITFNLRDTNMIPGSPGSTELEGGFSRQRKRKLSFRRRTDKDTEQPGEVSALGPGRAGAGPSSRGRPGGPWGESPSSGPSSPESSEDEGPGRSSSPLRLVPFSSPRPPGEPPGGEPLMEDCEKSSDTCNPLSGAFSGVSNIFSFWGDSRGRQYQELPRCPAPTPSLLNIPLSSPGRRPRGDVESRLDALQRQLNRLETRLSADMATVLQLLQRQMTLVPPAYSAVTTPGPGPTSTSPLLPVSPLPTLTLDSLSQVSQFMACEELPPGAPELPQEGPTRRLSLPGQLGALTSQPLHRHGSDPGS

SMILES | hERG current change (%, negative = inhibition) at 10uM [%]
Clc1ncccc1-c1nnn(-c2ccccc2)n1 | 15.1
O=C(Cn1ccc(NC(=O)OCc2ccccc2)nc1=O)NCCc1c[nH]c2ccccc12 | 15.9
C1CCN=C(Nc2nn[nH]n2)CC1 | 16.2
O=C(c1ccccc1)N1CCN(C(=O)c2ccc3c(c2)OCO3)CC1 | 4.32
COc1ccc(C2c3ccc(O)cc3Oc3ncn(Cc4ccco4)c(=N)c32)cc1 (stereo not drawn) | -71.9
COc1cc(/C=C2/SC(=S)N(CC(=O)NC(C)(C)C)C2=O)cc(OC)c1OC | 14.3
CCCCn1c(SC(C)C(N)=O)nc2cc(C(=O)OC)ccc2c1=O (stereo not drawn) | -1.48
CCOC(=O)C(NC(C)=O)(OCc1ccc(F)cc1)C(F)(F)F (stereo not drawn) | 7.18
CCOc1ccccc1/C=C/c1cc(C(=O)O)c2ccccc2n1 | 13.3
COc1ccc(OC)c(NC(=O)CCN2CCN(c3ccccc3OC)CC2)c1 | 2.82
COc1ccc(C(=O)Nn2c(SCC(=O)NCc3ccccc3)nc3ccccc3c2=O)cc1 | -8.34
CSc1nc2ccc(NC(=O)c3ccc(=O)[nH]c3)cc2s1 | 12.5
CCOC(=O)C1CCN(CC(=O)Nc2c(C(=O)OC)n(C)c3cccc(C)c23)CC1 | -10.4
CCc1ccc(S(=O)(=O)Nc2cc(SCC(=O)O)c(O)c3ccccc23)cc1 | 4.3
Cc1cccc(NC(=O)NNC(=O)c2ccc(C)c([N+](=O)[O-])c2)c1 | 5.97
Cc1noc(C)c1CSCC(=O)N(C)CC(=O)Nc1ccccc1Br | 6.84
Cc1cc(=O)[nH]c(SCC(=O)Nc2cccc(S(=O)(=O)N3CCOCC3)c2)n1 | 13.5
CCN(C(=O)Cc1c(C(=O)O)[nH]c2ccccc12)c1ccc(OC)cc1 | 23.8
O=C(Nc1ccc(O)c(-c2nc3ccccc3s2)c1)c1cc(=O)c2ccccc2o1 | 5.18
O=C(Nc1ccccc1)C(=O)c1cn(CC(=O)N2CCCCC2)c2ccccc12 | -31.2
O=C(CCC(=O)c1ccccc1)NC1CCCN(Cc2ccccc2F)C1 (stereo not drawn) | -11
N#Cc1c(SCC(=O)Nc2cccc(C(F)(F)F)c2)sc2c(O)cc(=O)[nH]c12 | 19.5
Cc1cc2nnc(SC3CCOC3=O)n2c2ccccc12 (stereo not drawn) | -10.3
N=c1oc2cc(O)ccc2cc1C(=O)Nc1ccccn1 | 20.5

Source: article PMC4336329 (PLoS ONE, 2015)
